Assay results reported in PubChem BioAssay AID686970 (National Center for Advancing Translational Sciences (NCATS), 2013).
About 6,000 (1.7%) of roughly 360,000 compounds were called active. The inconclusive results got no clear call from the source; some entries with a clear call stand among them for comparison. The call rests on the fitted dose curve; in most records, active means well fitted cell-killing curve with a large enough effect; inconclusive means small, poorly fitted or top-dose-only effect, or effect the other way; inactive means flat fitted curve, though single readings scatter. Potencies of inconclusive entries are left out as doubtful fits.

Test: qHTS for induction of synthetic lethality in tumor cells producing 2HG: qHTS for the HT-1080-NT fibrosarcoma cell line;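 further: NT is the 2HG producing partner of a matched IDH1 knockdown line; nearly all actives have a fitted effect of over 55% in size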;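 on activity, negative = less viability: 0% = DMSO-treated cells and -100% = media-only wells without cells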
Conditions: HT-1080-NT fibrosarcoma viability, CellTiter-Glo ATP luminescence, 48 h; activity, negative = less viability: at 46.1 µM (top of the series) unless noted
How it was run: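 Luminescent CellTiter-Glo readout after 48 hours of compound exposure at 37 degrees C defined viability of HT-1080-NT cells. Activity was normalized to DMSO wells and cell-free media wells; concentration-response curves were fitted and assigned curve classes.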
Potency means the concentration at half of the fitted maximal effect; tags describe the fitted curve by direction and shape.

| SMILES | Potency | activity, negative = less viability |
| --- | --- | --- |
| CCCN(CCC)C(=S)NC(=O)c1ccc(-c2ccccc2)cc1 | inconclusive [cytotoxic, single point] |  |
| CN(CCCNC(=O)CCCOc1cc(=O)n(C)c2ccccc12)Cc1ccccc1 |  | inconclusive: -1.99% |
| O=C(CNC(=O)c1ccccc1F)Nc1ccccc1C(F)(F)F |  | inactive: 2.16% |
| CCc1ccc2[nH]c(=O)c(CN(CCN3CCCC3)C(=O)NC3CCCCC3)cc2c1 | inconclusive [cytotoxic, single point] |  |
| CCc1nnc(N/N=C/c2ccccc2Cl)n1N | inconclusive [cytotoxic, single point] |  |
| COC(=O)c1ccc(NC(=O)c2ccc(N(C)S(C)(=O)=O)cc2)cc1 | inconclusive [cytotoxic, single point] |  |
| O=C(Nc1ccc(Cl)cc1)N1CCCN(c2ccc(C(F)(F)F)cc2[N+](=O)[O-])CC1 | inconclusive [cytotoxic, single point] |  |
| Cc1ccccc1/C(N)=N/OC(=O)N1c2ccccc2Sc2ccccc21 |  | inactive: -12.8% |
| O=C(Nc1cccc(C(F)(F)F)c1)C1Cc2c(-c3cccc(F)c3)ccnc2O1 (stereo not given) | inconclusive [cytotoxic, single point] |  |
| Cc1ccc(S(=O)(=O)Oc2ccccc2/C=N/NC(N)=S)cc1 | active: 4.47 µM |  |
| O=C(c1ccc(Br)cc1)C(CN1CCOCC1)c1ccccc1 (stereo not given) | active: 10.3 µM |  |
| Cn1c(SCC(=O)Nc2cccnc2Cl)nnc1-c1ccco1 |  | inactive: 7.62% |
| CCOc1ccccc1NC(=O)/C=C/C(N)=O | inconclusive [cytotoxic, single point] |  |
| C[C@@H](NC(=O)OC(C)(C)C)c1nnc(S(=O)(=O)Cc2ccccc2)o1 | active: 16.4 µM |  |
| O=C(NCCN1C(=O)S/C(=C\c2ccc(Cl)c(Cl)c2)C1=O)c1ccc2c(c1)C(=O)N(Cc1ccncc1)C2=O | inconclusive [cytotoxic, single point] |  |
| Cc1ccsc1/C=C1\CCc2ccccc2C1=O | inconclusive [cytotoxic, single point] |  |
| Cc1cccc(NC(=O)CCC(=O)N/N=C/c2cc([N+](=O)[O-])ccc2O)c1 | inconclusive [cytotoxic, partial curve] |  |
| CC1(Cc2ccc(F)cc2)C(=O)Nc2c(Cl)cccc21 (stereo not given) | inconclusive [rising, single point] |  |
| CCn1c2ccccc2c2cc(NS(=O)(=O)c3ccccc3C)ccc21 | inconclusive [cytotoxic, single point] |  |
| Cc1ccc(S(=O)(=O)/N=C2\C=C(Nc3ccc(O)cc3)C(=O)c3ccccc32)cc1 | active: 18.4 µM |  |
| COc1cc(/C=N/NC(=O)CCc2c(C)n[nH]c2C)ccc1O |  | inactive: 9.9% |
| CCc1ccc(NC(=O)CSc2nnc(SCC(=O)Nc3ccc(CC)cc3)n2N)cc1 | inconclusive [cytotoxic, partial curve] |  |
| CCS(=O)(=O)c1ccc(O)c(NC(=O)Nc2ccc(C(C)(C)C)cc2)c1 | inconclusive [cytotoxic, single point] |  |
| CN1CCC(N2CCN(C3CN(Cc4ccccc4)S(=O)(=O)C3)CC2)CC1 (stereo not given) |  | inconclusive: 31% |

| SMILES | Potency | activity, negative = less viability |
| --- | --- | --- |
| Cc1ccc(S(=O)(=O)N(CC(=O)Nc2ccc(Cl)cc2)C(=O)N2CCN(C)CC2)cc1 |  | inactive: -7.59% |
| O=[N+]([O-])c1ccc(N=Nc2ccc(O)cc2O)cc1 | active: 18.4 µM |  |
| COc1c(Br)cc([N+](=O)[O-])c(OC)c1C(=O)NC(=O)Nc1cc(Cl)cc(Cl)c1 | inconclusive [cytotoxic, single point] |  |
| CC(C(=O)NCc1ccc(F)cc1)c1ccc([N+](=O)[O-])cc1 (stereo not given) |  | inactive: 0.0322% |
| O=C(NCc1ccccc1)[C@@H]1C[C@H]1[C@@H](NP(=O)(c1ccccc1)c1ccccc1)c1ccccc1 | inconclusive [cytotoxic, single point] |  |
| COCCNC(=O)C1(C)CCN(C(=O)c2cccc(C)c2C)C1 (stereo not given) | inconclusive [rising, single point] |  |
| O=[N+]([O-])c1ccc(O)c(Nc2ncnc3ccc(Br)cc23)c1 | inconclusive [cytotoxic, partial curve] |  |
| O=C(c1cc2c(c(-c3cccc(-c4ccc(F)cc4)c3)n1)[C@H](CCO)N(C(=O)c1ccc3c(c1)OCO3)C2)N1CCOCC1 | active: 20.6 µM |  |
| Cc1cc(N2CCN(C)CC2)nc2ccc(NC(=S)NCCCN3CCc4ccccc4C3)cc12 | active: 18.4 µM |  |
| O=C(NCCN1CCc2ccccc2C1)C1CC(=O)N(C2CCCC2)C1 (stereo not given) |  | inconclusive: 1.88% [cytotoxic] |
| Cn1c(=O)c2c(nc(N3CCN(Cc4ccccc4)CC3)n2CCCc2ccccc2)n(C)c1=O | inconclusive [cytotoxic, partial curve] |  |
| CCOC(=O)c1cnc2c(ccc3ccccc32)c1NCCCN(C)C | inconclusive [cytotoxic, single point] |  |
| COc1ccc(C2c3ccc(O)cc3Oc3ncn4nc(-c5ccco5)nc4c32)cc1OC (stereo not given) | inconclusive [cytotoxic, partial curve] |  |
| CCCCCCCCCCC[N+](C)(C)CC/C=C1/c2ccccc2Sc2ccc(Cl)cc21 | inconclusive [cytotoxic, single point] |  |
| NC(=O)c1ccc(C(F)(F)F)n(Cc2c(Cl)cccc2Cl)c1=O | inconclusive [cytotoxic, single point] |  |
| COc1cccc(Cn2c(NCc3cccnc3)nc3c2c(=O)n(C)c(=O)n3C)c1 | active: 4.61 µM |  |
| C(=NN1CCCCCC1)c1ccc2ccccc2n1 | active: 6.51 µM |  |
| O=C(CNC(=S)NC(=O)c1ccc(Br)o1)c1ccccc1 |  | inactive: -1.19% |
| O=S1(=O)CCOC[C@H](c2ccccc2)N1Cc1ccccc1 |  | inactive: 3.61% |
| CC12CCC(C(=O)Nc3ccc(SC(F)F)cc3)(CC1=O)C2(C)C (stereo not given) | inconclusive [cytotoxic, single point] |  |
| Cc1cccc2c1-c1sc(C(=O)NCCCN3CCCC(C)C3)cc1CO2 (stereo not given) | active: 20.6 µM |  |
| Cc1nc2ccc(S(=O)(=O)Nc3cccc(-c4nc5cccnc5s4)c3)cc2s1 | inconclusive [cytotoxic, single point] |  |
| O=c1[nH]c(/C(Cl)=C/c2c(F)cccc2Cl)nc2cc(Cl)ccc12 | inconclusive [cytotoxic, partial curve] |  |
| CCN(CC)Cc1csc(C(N)=O)c1 |  | inactive: 4.59% |

| SMILES | Potency | activity, negative = less viability |
| --- | --- | --- |
| O=c1cc(Nc2ccc3c(c2)OCCO3)[nH]c(=O)n1C1CCCCC1 | inconclusive [cytotoxic, single point] |  |
| CC1(C(=O)NCc2ccccc2Br)CCN1Cc1ccccc1OC(F)F (stereo not given) | inconclusive [cytotoxic, single point] |  |
| Nc1ccc(Cn2ccc3c4c(N)nc(N)nc4ccc32)cc1 | active: 0.517 µM |  |
| Cc1ccc(C)c(N2N=C(C(=O)Nc3ccccc3N3CCCC3)CCC2=O)c1 | inconclusive [cytotoxic, single point] |  |
| Cc1ccccc1-c1nc(CN2CCC(C(=O)NCCCN3CCOCC3)CC2)c(C)o1 | active: 10 µM |  |
| COc1ccc(C(=O)N2CCC(CCC(=O)Nc3cccc(C)c3)CC2)cc1 |  | inactive: -9.46% |
| COc1cccc(C(=O)c2sc(NC(C)C)nc2N)c1 |  | inactive: -23.7% |
| COc1cc2c(cc1NC(=O)C(C)NCc1ccccc1)oc1ccccc12 (stereo not given) | inconclusive [cytotoxic, single point] |  |
| CCCN(CCC)CCCNc1ccc(C(=O)Nc2cccc(OC)c2)cc1[N+](=O)[O-] | inconclusive [cytotoxic, single point] |  |
| CN(C)CCN(C(=O)c1cccc2ccccc12)c1nc2cc3c(cc2s1)OCO3 | inconclusive [cytotoxic, single point] |  |
| CCOC(=O)C1(Cc2cccc(F)c2)CCN(Cc2nc(CC)[nH]c2C)CC1 | inconclusive [cytotoxic, partial curve] |  |
| CCCCCCSc1cccc(-c2nc3ccc(C)cn3c2NCc2ccccc2)c1 | inconclusive [cytotoxic, single point] |  |
| COc1ccc(-c2cc3nc(NCCOc4ccccc4)ccn3n2)cc1 |  | inconclusive: -31.8% |
| COCCCNC(=O)Cn1c(=O)n(CCCCCC(=O)NCc2ccc3c(c2)OCO3)c(=O)c2sccc21 |  | inactive: -1.9% |
| CC(=O)N1C(O)CC(C)N1c1ccccc1 (stereo not given) |  | inactive: 2.42% |
| N#C/C(=C/c1ccc(O)c(O)c1)C(=O)NCc1ccc(Cl)cc1 | inconclusive [cytotoxic, single point] |  |
| CCOc1ccc(C(C(=O)NC2CCCC2)N(CCCO)C(=O)c2ccc(-c3ccccc3)[nH]2)cc1 (stereo not given) | inconclusive [cytotoxic, partial curve] |  |
| CC(=O)Nc1cccc(OCC(=O)/C=C2\N(C)c3ccccc3C2(C)C)c1 | inconclusive [cytotoxic, partial curve] |  |
| O=C(OCc1c(-c2ccccc2)ncc2ccccc12)c1ccccc1C(F)(F)F | inconclusive [cytotoxic, single point] |  |
| O=C(NCC(c1cccs1)N1CCOCC1)c1cc(F)cc(F)c1 (stereo not given) | active: 7.31 µM |  |
| CC1CCCN(c2nc(NCc3ccco3)nc(N)c2[N+](=O)[O-])C1 (stereo not given) | inconclusive [cytotoxic, single point] |  |
| O=C(NCCCN1CCCC1)c1cc2c(Cl)nc3ccccc3c2s1 | inconclusive [cytotoxic, single point] |  |
